T1: UNK ZnF1-6 (called full-length) (human, UniProt Q9C0B0 30-357)
T1 sequence: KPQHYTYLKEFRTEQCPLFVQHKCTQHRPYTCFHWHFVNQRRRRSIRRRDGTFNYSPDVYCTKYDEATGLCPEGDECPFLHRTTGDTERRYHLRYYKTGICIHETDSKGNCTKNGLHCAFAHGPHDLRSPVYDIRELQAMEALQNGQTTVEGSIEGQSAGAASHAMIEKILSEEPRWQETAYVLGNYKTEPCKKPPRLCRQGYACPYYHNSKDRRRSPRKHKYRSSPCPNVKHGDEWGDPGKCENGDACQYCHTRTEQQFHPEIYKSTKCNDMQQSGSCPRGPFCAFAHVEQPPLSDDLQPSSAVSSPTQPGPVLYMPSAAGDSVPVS

B1: chr11:72288215:72288316:-|3pUTR|ENSG00000162129|unk|FALSE|unique (ssRNA)
RNA: GGGAGUUCUACAGUCCGACGAUCACCCAGCUAAUUUUUUUUGUAUUUUUAGUAAAGACGGGGUUUCACCAUGUUUGCCAGGCUAGUCUCAAACUCCUGGUCUCAAGUGAUCCACCCACCUUGGCCUCCCAGAGUGCUGAGAUUCAACAGAGGAUUGAGCAUCA
B2: ENSG00000124766:be:win_2051|3pUTR|ENSG00000124766|bound_else_gene|NA|bound_elsewhere_windowed (ssRNA)
RNA: GGGAGUUCUACAGUCCGACGAUCACGCAGGCGAAUUCCCGUUUGGGGCUUUUUUUUCCUCCCUCUUUUCCCCUUGCCCCCUCUGCAGCCGGAGGAGGAGAUGUUGAGGGGAGGAGGCCAGCCAGUGUGACCGGCGCUAGGAAACAACAGAGGAUUGAGCAUCA
B3: chr13:42321371:42321394:+|3pUTR|ENSG00000023516|msi1_unk|total|mutant (ssRNA)
RNA: GGGAGUUCUACAGUCCGACGAUCUUCUGUUUAUGGUGUAAUCAUUCUGAGGUGAGGCUUUUCUUAUUUCCUUUGCAUUUUGCCCGAGCUGUGCUGAGUUCAGCAUUUGCUUAUUUAACCACUACAUAAUGACAGACCAGUUAUCAACAGAGGAUUGAGCAUCA
B4: chr5:154419581:154419682:+|3pUTR|ENSG00000164574|msi1|FALSE|unique (ssRNA)
RNA: GGGAGUUCUACAGUCCGACGAUCAAAGGGAUGGGUGUGUCCUCUGAGCACUCUGGCAUUUGUCAUUGCUGAGCCCAUAUCAGUAGGUCCUGGGACUUGACAAAGUAUGUGGGAGGGGAAGGAAGGACAGAACUUGACUGGCUCCAACAGAGGAUUGAGCAUCA
B5: chr9:33053202:33053303:-|CDS|ENSG00000122692|msi1|FALSE|unique (ssRNA)
RNA: GGGAGUUCUACAGUCCGACGAUCCCUAAAACUUUAGAAAUUUUUAUACCUAAAAAAGGUUUAUAACUUAAAUUUCUGUGUGGUAGAUCUGGAAUAUGAAGACCACAGAAUGUUCAAAUACCUUUAAAUCCCUGGGCAGCACCGCAACAGAGGAUUGAGCAUCA
B6: chr14:49622334:49622435:+|CDS|ENSG00000168282|unk|FALSE|unique (ssRNA)
RNA: GGGAGUUCUACAGUCCGACGAUCCAAUACUUGACUGUAUCUUGUCUUCCAAAAUUCUGGAAAGUGCUGGUUCCUCAAAUUCCUAGGAUCUUUCAUGCUGGAGACUGUGGUAUGCAUCACAAGAAAACCUGUAGACCAUCCACUCAACAGAGGAUUGAGCAUCA
B7: chr15:85581792:85581893:+|CDS|ENSG00000170776|unk|FALSE|bound_elsewhere (ssRNA)
RNA: GGGAGUUCUACAGUCCGACGAUCUGCCCAGGACGCACCUCUGCCUAAGGGGGCAGACUUGAUAGAGGAGGCUGCCAGCCGUAUAGUGGAUGCUGUCAUCGAACAAGUCAAGGCCGCUGGAGCACUGCUUACUGAGGGGGAGGCCAACAGAGGAUUGAGCAUCA
B8: chr1:17067933:17068034:-|3pUTR|ENSG00000117115|msi1|FALSE|unique (ssRNA)
RNA: GGGAGUUCUACAGUCCGACGAUCACAUAAGGACCCUGGCCUACCCUCCAGCCCAACAGCCAGUUCUGGGUCAGCUGCCAACUUAGGGGUGGUUUGAUUAUCCCAUUGAAAUUCACCAGUGCCUUUGCCAAAGACCCUCUCAUUCAACAGAGGAUUGAGCAUCA
B9: chr3:49887309:49887562:-|CDS|ENSG00000164078|control|control|control (ssRNA)
RNA: GGGAGUUCUACAGUCCGACGAUCGGAGGCAGACCCAGCAGUGCGACCCACCUUCAGAGUACUAGUGGGGGAGGUGGAGCAGAUAGUGUCUGCACUGCUUGGGGACCAUUAUGUGCAGCUGCCAGCAACCUACAUGAACUUGGGCAACAGAGGAUUGAGCAUCA
B10: chr9:5123879:5124511:-|three_prime_utr|ENSG00000120210|control|control|control (ssRNA)
RNA: GGGAGUUCUACAGUCCGACGAUCCUGGUAAAUUGGAUUGCCAUAUGCAGAAGAAUGAAACUGGACCCAUAUUUAUCACCAUAUAGAAAAAUUAACUCGAUCGAUUACAGACUUAAAUGUAAGAUCUGAAACUAGAAAAAUACUCAACAGAGGAUUGAGCAUCA
B11: ENSG00000198589:be:win_7051|CDS|ENSG00000198589|bound_else_gene|NA|bound_elsewhere_windowed (ssRNA)
RNA: GGGAGUUCUACAGUCCGACGAUCCCUGAAUUUUAUUAUCUCCCUGAGAUGUUUGUCAACUUCAAUAAUUAUAAUCUUGGAGUGAUGGAUGAUGGGACAGUAGUGUCUGAUGUCGAACUUCCUCCUUGGGCCAAAACCUCAGAACAACAGAGGAUUGAGCAUCA
B12: chr2:210612109:210612263:+|CDS|ENSG00000021826|unk|total|mutant (ssRNA)
RNA: GGGAGUUCUACAGUCCGACGAUCUAUUGGUCGUACCUUUGAGGAGAGUUUCCAGAAAGCUUUACGGAUGUGCCACCCAUCUACCGAAGGUUUCACUCCCCGUCUCCCAAUGAACAAAGAAUGGCCAUCUAAUUCCGAUCUCCGCAACAGAGGAUUGAGCAUCA
B13: chr11:20156216:20156573:-|CDS|ENSG00000109851|control|control|control (ssRNA)
RNA: GGGAGUUCUACAGUCCGACGAUCAUCUGGUUCCAGAACCGACGCAUGAAAUGGCGGAACUCCAAGGAGCGCGAACUCCUGUCUAGCGGGGGCUGUCGCGAGCAGACCCUGCCCACCAAGCUCAAUCCGCACCCGGACCUCAGCCAACAGAGGAUUGAGCAUCA
B14: chr8:80637648:80637749:-|3pUTR|ENSG00000164684|unk|FALSE|unique (ssRNA)
RNA: GGGAGUUCUACAGUCCGACGAUCUGCGCUUAGCUGCAAAGUGCCUGUCAGCAGCUCCAGGCACCAACAAGGUGCCCUUUUAUUAGACAAUUCCUGCCCGAACAUAACCAUAUUGCAGAUGAAAAUUUUCAAUAGAGAAUGACACAACAGAGGAUUGAGCAUCA
B15: ENSG00000107863:be:win_1351|CDS|ENSG00000107863|bound_else_gene|NA|bound_elsewhere_windowed (ssRNA)
RNA: GGGAGUUCUACAGUCCGACGAUCGUCCAGAUACGGCAACGCAGUGUGUCCCAAGAAAGACUGGAAGAUUCUGUGCUAAUGAAGUAUUGUCCAAGAAGUGCAUCUCAAGGAGCACUGACGUCUCCAUCUGUUAGUUUUAGUAAUCAACAGAGGAUUGAGCAUCA
B16: chr12:56205560:56205676:-|3pUTR|ENSG00000181852|unk|FALSE|unique (ssRNA)
RNA: GGGAGUUCUACAGUCCGACGAUCCUCUUGUGGCACAGGCCAUAAUUGUUCCAUAGACCCCUCUCUAGCCCUGUGACUGUAGUUAGUUACUUUGAUAAUUUUCUUUGGCCAUUGUUUGUUUAUAUUUCACAAACUCCACCUACUCAACAGAGGAUUGAGCAUCA
B17: chr17:57106211:57106324:+|CDS|ENSG00000121057|unk|FALSE|unique (ssRNA)
RNA: GGGAGUUCUACAGUCCGACGAUCUCAUCCCAGGUGGUGGGGCCAGUGCAGGAGGAAGAGUAUGUAGCAGAGAAGUUGCCAAGUAGGUUCAUCGAGUCGGCUCACACAGAGCUGGCAAAGGACGAUGCGGCGCCAGCACCCCCACAACAGAGGAUUGAGCAUCA
B18: chr1:205084032:205084133:-|CDS|ENSG00000174529|msi1|total|mutant (ssRNA)
RNA: GGGAGUUCUACAGUCCGACGAUCGGAGACCGUCUGUGAGGUGGGCCCUGAUGGAGUGAGAAGGAAAUGUCAGACUCGGCGCUCCGAAUGUCUGACCAACUGGAUCUGUGGGAUGCUCCAUUUCACCAUUCUCAUUGGCAAGGACAACAGAGGAUUGAGCAUCA
B19: chr3:149172415:149172516:+|3pUTR|ENSG00000163755|unk|FALSE|unique (ssRNA)
RNA: GGGAGUUCUACAGUCCGACGAUCUUACCGUGUAGUGGUAACUAUUCACUUCUUAAUUUAUGACCUCAAUCAAUUUAAUUGUCUAGAAUGUAAAAAGUCUUUAAGACAUAAGAAUUCCUCAAAGAAGCCAUACAUUUUUUAAGGCAACAGAGGAUUGAGCAUCA
B20: chr6:109001311:109001429:-|CDS|ENSG00000080546|unk|FALSE|unique (ssRNA)
RNA: GGGAGUUCUACAGUCCGACGAUCUGCUGCUUUGGGCCGUUUGGAUAACAUUACGUUAGUGAUGGUUUUCCACCCACAAUAUUUAGAAAGUUUCUUAAAAACUCAGCACUAUCUACUGCAAAUGGAUGGGCCGUUACCCCUACACAACAGAGGAUUGAGCAUCA
B21: chr9:83661418:83661519:-|3pUTR|ENSG00000135018|msi1|total|mutant (ssRNA)
RNA: GGGAGUUCUACAGUCCGACGAUCUACCGUUGGGUGACCAGAUUUUGUCCUGCAUCUGUCCAGUUUAUUUGCUUUUUAAACAUCCGCCUAUGGCCGUAAUUUAUGCCGAAUAAAAGCAUUAAAAAGAAGCAAAUCAUUUGCACUCAACAGAGGAUUGAGCAUCA
B22: chr17:76291014:76294021:-|CDS|ENSG00000129646|control|control|control (ssRNA)
RNA: GGGAGUUCUACAGUCCGACGAUCAGAAUGAGUUCUAGUUUCCCCACGGCAGUGGAGACAUUUCAUCUGAUGGGAGAGCUCAGUAGCCUCUAUGUGGGGCUAAAGGAGAGUAUGAAGGAUCUGGAUGAGGAGCAGGCCGGCCAACAACAGAGGAUUGAGCAUCA

Some of the results follow.

The experiment has as its target T1, UNK ZnF1-6 (called full-length). The experiment can be described thus: nsRBNS (natural sequence RNA bind-n-seq); RBNS binding buffer (assumed for nsRBNS): 25 mM Tris pH 7.5, 150 mM KCl, 3 mM MgCl2, 0.01% Triton X-100, 500 ug/ml BSA, 20 U/ml SUPERase-In, 4 C; UNK is unkempt and MSI1 is Musashi-1; names of the RNAs are library labels; protein concentration not given here; high values mean tight binding.
B1: the binding signal worked out at 3.92 enrichment R. Then B2, with 0.64 enrichment R. As for B3, the binding signal is 0.626 enrichment R. Then B4, with 0.805 enrichment R; and B5, with 1.04 enrichment R; and B6, with 0.453 enrichment R. Then B7, with 0.861 enrichment R; and B8, with 0.896 enrichment R; and B9, with 0.887 enrichment R.

With B10, the binding signal was 21.7 enrichment R.

As for B11, the binding signal worked out at 0.368 enrichment R. Under B12 stands 0.476 enrichment R. Then B13, with 0.574 enrichment R; and B14, with 0.967 enrichment R; and B15, with 4.38 enrichment R. Then B16, with 33.5 enrichment R; and B17, with 1.49 enrichment R; and B18, with 0.782 enrichment R.

Take B19: the binding signal turned out to be 2.23 enrichment R. In the case of B20, the binding signal came out at 0.699 enrichment R. Under B21 stands 0.284 enrichment R.

As to B22, the binding signal stood at 0.915 enrichment R.

These data come from PMC12136788.
